# Laboratory results from the BET-seq Pho4 binding data (Le et al. 2018).
# The other results are listed elsewhere or left out. These are noisy estimates, calculated here from bound and input reads.
# Biological target: T1, Pho4 (S. cerevisiae) (UniProt P07270)
# T1 sequence: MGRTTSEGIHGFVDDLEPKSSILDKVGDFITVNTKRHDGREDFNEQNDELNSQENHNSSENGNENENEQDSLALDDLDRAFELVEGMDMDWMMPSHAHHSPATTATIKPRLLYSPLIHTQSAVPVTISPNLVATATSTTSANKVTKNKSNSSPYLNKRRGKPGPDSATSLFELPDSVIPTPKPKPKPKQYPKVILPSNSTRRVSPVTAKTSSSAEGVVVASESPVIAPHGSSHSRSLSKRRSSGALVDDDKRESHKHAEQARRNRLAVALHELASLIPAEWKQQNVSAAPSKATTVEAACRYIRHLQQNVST
# Assay: relative binding free energy (BET-seq); higher = weaker binding
# Settings: reference: library average
row,Sequence,relative binding free energy
1,TTGGACACGTGATTCT,0.18 kcal/mol
2,TGGCACACGTGGGGGG,-0.07 kcal/mol
3,TTCTGCACGTGTGTTT,0 kcal/mol
4,TATGGCACGTGCTATT,-0.25 kcal/mol
5,GATTACACGTGCAGGG,0.28 kcal/mol
6,CATGTCACGTGCGTGG,0.09 kcal/mol
7,TACGCCACGTGGTGTT,-0.14 kcal/mol
8,GTTTTCACGTGCAGGG,0.37 kcal/mol
9,TAGTACACGTGGGAAG,0.02 kcal/mol
10,AGGTGCACGTGTGGTC,0.02 kcal/mol
11,GGCAGCACGTGGTGAG,0.02 kcal/mol
12,GGCCTCACGTGGTTGT,0.22 kcal/mol
13,GGGGGCACGTGAGTCC,0.19 kcal/mol
14,TGCTGCACGTGGGGGA,-0.15 kcal/mol
15,TATCGCACGTGAGAGG,0.16 kcal/mol
16,AGATGCACGTGGGCCG,-0.25 kcal/mol
17,GATTGCACGTGACGGA,0.29 kcal/mol
18,GGGAACACGTGTGATG,0.08 kcal/mol
19,AAGGTCACGTGGAGAG,0.11 kcal/mol
20,TTGCGCACGTGTGCTT,-0.11 kcal/mol
21,GGCGGCACGTGGTTTT,-0.05 kcal/mol
22,TCGTTCACGTGTAGGA,0.28 kcal/mol
23,TGCGTCACGTGAGGAA,0.18 kcal/mol

row,Sequence,relative binding free energy
1,GGTTGCACGTGGCTTC,0.08 kcal/mol
2,GGGGGCACGTGCTTGT,-0.01 kcal/mol
3,GTGATCACGTGGGCTA,-0.03 kcal/mol
4,CAGGGCACGTGGGTTC,-0.17 kcal/mol
5,GGGTACACGTGAGGCG,0.33 kcal/mol
6,CTTTACACGTGGTGGA,0.1 kcal/mol
7,GCTGGCACGTGGTTGC,0.03 kcal/mol
8,CTGTGCACGTGCATGG,-0.06 kcal/mol
9,TTCGTCACGTGGCTTG,0.03 kcal/mol
10,GGAAGCACGTGTTCGG,-0.11 kcal/mol
11,TGGGGCACGTGAAAGC,0.02 kcal/mol
12,GGGGACACGTGGCATG,-0.04 kcal/mol
13,ATAGGCACGTGTAGCG,-0.03 kcal/mol
14,TTAAACACGTGGCGGT,-0.12 kcal/mol
15,AAGGGCACGTGGGTTT,-0.12 kcal/mol
16,GGGATCACGTGGGGTC,0.11 kcal/mol
17,GCTGCCACGTGTTGGT,-0.01 kcal/mol
18,ATGCGCACGTGTTGAG,-0.03 kcal/mol
19,CTTGTCACGTGATGAT,0.22 kcal/mol
20,TTCCGCACGTGGGTGG,-0.1 kcal/mol
21,TGGGTCACGTGGGTCT,0.06 kcal/mol
22,TAGATCACGTGGACGG,0.17 kcal/mol
23,TGTTACACGTGATTGG,0.16 kcal/mol

row,Sequence,relative binding free energy
1,TTTAACACGTGTGGTC,0.08 kcal/mol
2,TGCGGCACGTGATTAG,-0.04 kcal/mol
3,TAGGTCACGTGCTTTG,0.04 kcal/mol
4,AGAAGCACGTGTGTAG,-0.07 kcal/mol
5,GTATTCACGTGATGAT,0.39 kcal/mol
6,GTTTTCACGTGTATGC,0.28 kcal/mol
7,AGGGTCACGTGTGCTC,0.11 kcal/mol
8,TTCTTCACGTGCTGTG,0.22 kcal/mol
9,TATTGCACGTGCAGTG,0 kcal/mol
10,GGTTGCACGTGGGCAG,-0.07 kcal/mol
11,ACTGTCACGTGGGGTC,-0.09 kcal/mol
12,TTCGGCACGTGTGAGA,-0.02 kcal/mol
13,ACTGTCACGTGCGTGG,-0.11 kcal/mol
14,GGCGTCACGTGTGTTC,0.33 kcal/mol
15,AATTCCACGTGGGGTT,0 kcal/mol
16,TGTGTCACGTGAAATA,0.24 kcal/mol
17,GGATTCACGTGGGTCG,0.16 kcal/mol
18,TGAAGCACGTGTGGTG,0.05 kcal/mol
19,TTTGACACGTGTCGCG,-0.01 kcal/mol
20,GGGGGCACGTGAGAAT,0.28 kcal/mol
21,GTGAGCACGTGTTTTC,-0.02 kcal/mol
22,GCGGTCACGTGGGAGA,-0.05 kcal/mol
23,GTTGGCACGTGCAGGT,-0.12 kcal/mol

row,Sequence,relative binding free energy
1,TTCTGCACGTGTGGGA,-0.06 kcal/mol
2,GTCTGCACGTGGTGAT,-0.08 kcal/mol
3,GTTCTCACGTGGGCTT,0.22 kcal/mol
4,GCGGTCACGTGTAGGT,0.16 kcal/mol
5,ATGGGCACGTGGCGGG,-0.19 kcal/mol
6,AAGGGCACGTGAGCCG,0.09 kcal/mol
7,TGAGCCACGTGGCGTT,-0.06 kcal/mol
8,GGTTTCACGTGGTAGT,0.29 kcal/mol
9,TGGGTCACGTGGTTGT,0.15 kcal/mol
10,TCAATCACGTGTTAGG,0.06 kcal/mol
11,ATATTCACGTGGGAGT,0.17 kcal/mol
12,GTTTCCACGTGTATGT,0.01 kcal/mol
13,AGCTACACGTGAGGTG,0.35 kcal/mol
14,ATAGGCACGTGTGCGA,-0.18 kcal/mol
15,TTACGCACGTGGGTAA,-0.16 kcal/mol
16,AGTGGCACGTGAGATA,0.09 kcal/mol
17,TAGACCACGTGGTTTG,-0.02 kcal/mol
18,ATGACCACGTGGTATG,-0.1 kcal/mol
19,GACTTCACGTGTTATT,0.28 kcal/mol
20,CGGTACACGTGTTGTG,-0.08 kcal/mol
21,GTAAGCACGTGTTGAT,-0.1 kcal/mol
22,GAATTCACGTGGGGGT,0.15 kcal/mol
23,TCGGGCACGTGGTGTG,-0.16 kcal/mol

row,Sequence,relative binding free energy
1,TTTAGCACGTGCGGTA,-0.12 kcal/mol
2,GCTTGCACGTGTGTGA,-0.02 kcal/mol
3,AGGTGCACGTGTAGCG,-0.04 kcal/mol
4,ATGGGCACGTGGTCTT,-0.21 kcal/mol
5,CCGTGCACGTGTTGTG,-0.17 kcal/mol
6,CGTGTCACGTGAATGG,0.16 kcal/mol
7,ATTGACACGTGTTCGG,-0.16 kcal/mol
8,TAAGGCACGTGATGTG,0.02 kcal/mol
9,TGTCACACGTGTGGGC,0.12 kcal/mol
10,TTACGCACGTGGGTTA,-0.19 kcal/mol
11,AGAAGCACGTGGAGAT,-0.04 kcal/mol
12,AAGATCACGTGAGTTG,0.19 kcal/mol
13,TAGTGCACGTGGTTAG,-0.08 kcal/mol
14,TATATCACGTGGGGTA,-0.04 kcal/mol
15,TTAGTCACGTGTTTTA,0.18 kcal/mol
16,TGTTACACGTGGGTCC,0 kcal/mol
17,TGAGCCACGTGCGTGT,-0.12 kcal/mol
18,CAAGTCACGTGGTTAG,0.04 kcal/mol
19,TGTTACACGTGAGTCG,0.29 kcal/mol
20,AATGGCACGTGGTGTC,-0.23 kcal/mol
21,TGTCACACGTGAATGT,0.18 kcal/mol
22,CATTGCACGTGGTGAT,-0.11 kcal/mol
23,ATTATCACGTGAAGTT,0.32 kcal/mol
